Measured values reported in PMC10668032.
Some of the results follow. At the low end of the ranking the order means little.

molecular target: SIX1 homeodomain (reference allele) (UniProt Q15475); test: universal protein binding microarray; settings: Universal all-10-mer PBM (8x60K, AMADID 030236), 300 nM GST-tagged protein, Alexa Fluor 488 anti-GST; buffer, salt, pH and temperature not stated; high values mean tight binding; most listed sequences are background and not binding sites; double strand, one strand shown

Sequence | binding signal
CGCTAAGC | -0.11 E-score
CAGCGCGG | 0.0111 E-score
GACGGCTA | 0.0286 E-score
AGAACTCT | -0.115 E-score
AAGGCAAT | -0.165 E-score
AATTACTG | -0.0632 E-score
AGCACGAC | -0.234 E-score
ATTAACCC | 0.129 E-score
AATAAAAG | -0.262 E-score
TAAAAAGA | -0.185 E-score
CATTCGAA | -0.22 E-score
AGCAATGC | -0.128 E-score
ACGGGGGG | -0.0613 E-score
ATCAACCC | 0.336 E-score
CAAGACGG | 0.112 E-score
CTAGTACC | -0.017 E-score
AAACGGAC | -0.16 E-score
ACCCTGCG | 0.00917 E-score
CCCTTATA | 0.0926 E-score
CCAAAGCC | -0.367 E-score
CAGAAATG | -0.0902 E-score
CTCTAGTA | 0.0845 E-score
AGGAGCAC | -0.0928 E-score
ACGGAAGA | 0.0394 E-score
AACGTATA | 0.167 E-score

Sequence | binding signal
CCGTTGCA | -0.118 E-score
CTGTCATA | -0.105 E-score
AACCTCCC | -0.0286 E-score
GTCAACTA | -0.101 E-score
AGGCGAAG | -0.00643 E-score
CTGAGTTC | -0.0295 E-score
GTCACGAA | 0.0421 E-score
TCGTTCAA | -0.127 E-score
AACAACGG | -0.132 E-score
ACGACTCT | -0.0206 E-score
AAACCACC | -0.0121 E-score
AGCTAATA | 0.0464 E-score
CCAGTGCA | -0.0821 E-score
AGGTTAGA | -0.176 E-score
GCAATCGA | -0.014 E-score
CGATAGAA | -0.0265 E-score
AATTTGAA | -0.211 E-score
AACCAATT | -0.136 E-score
CTTTGTAC | -0.249 E-score
ACATAGAA | -0.113 E-score
CTATGACA | 0.00261 E-score
ATTTCTCA | -0.166 E-score
AAGTGATA | 0.397 E-score
GGAGATAA | 0.0297 E-score
GCTCCATA | -0.0388 E-score

Sequence | binding signal
TCCATAGA | -0.132 E-score
ACCGAGTA | 0.103 E-score
AGCCTTGG | -0.117 E-score
CGTAAATC | -0.127 E-score
CCTCAACC | -0.144 E-score
AAGCTTCT | -0.0108 E-score
TACTGCAA | 0.163 E-score
GATTCAAC | -0.0707 E-score
ACGGTGAA | -0.00634 E-score
CGGGGTCA | 0.221 E-score
CACACAGA | 0.0258 E-score
CAGGGCAA | -0.104 E-score
GTAGCAGA | 0.0862 E-score
ACTCTCTC | -0.155 E-score
AAGCAACG | -0.131 E-score
GCCAGAAA | -0.197 E-score
AATCGGCA | -0.0864 E-score
CGTTATTA | -0.117 E-score
CGCCACGC | -0.193 E-score
CACACAAA | -0.0848 E-score
CGTATCGC | 0.453 E-score
ATTGATCG | 0.121 E-score
AAGTTGCA | -0.216 E-score
CTCCTGCA | -0.0731 E-score
ACAGGGAG | -0.174 E-score

Sequence | binding signal
GCGTTACC | -0.0629 E-score
TGCTTGAA | -0.0891 E-score
CGTAATTA | -0.157 E-score
AGAGGACA | -0.0731 E-score
CAGTTGCG | -0.0735 E-score
TAACGGTA | -0.0381 E-score
CGCTGAGA | 0.0988 E-score
ATTCCAAC | -0.0463 E-score
AAGGGTCG | -0.0732 E-score
ACGAAAAG | -0.212 E-score
CCGTTAAG | -0.17 E-score
CACATGAC | -0.13 E-score
AGTACAGC | -0.123 E-score
ACGGGGTC | 0.0842 E-score
CACGACAA | -0.212 E-score
ATCTGTAG | 0.0536 E-score
CTGGAGTC | -0.106 E-score
AGTGACCA | 0.0782 E-score
ACTATAAT | 0.0174 E-score
CTTGCACC | 0.0664 E-score
CCTGCAGC | -0.0156 E-score
GAAATGTA | -0.0722 E-score
GCAGGCGC | -0.225 E-score
ATACTCCA | 0.336 E-score
GGCATATA | 0.29 E-score

Sequence | binding signal
AAAGAACT | -0.256 E-score
CCTGTTCC | -0.0919 E-score
CCTACACC | 0.163 E-score
CTCATGAC | 0.0566 E-score
CATTATTC | -0.0194 E-score
CAATCTGA | 0.103 E-score
AGTTATTA | -0.122 E-score
CTAGCATA | -0.077 E-score
AGTTTAGG | -0.2 E-score
CACACGAA | -0.0903 E-score
CTTATACC | 0.275 E-score
CGACAAGA | 0.0328 E-score
GTCCCCGA | -0.146 E-score
GGCAATAA | -0.183 E-score
TTCCGCAA | -0.0115 E-score
ACCGTACA | 0.0208 E-score
GGTTTAAA | 0.187 E-score
CTCGTTAC | -0.0363 E-score
CCATCAGC | -0.0149 E-score
CAGGTCTA | -0.158 E-score
AACGGAGA | 0.0299 E-score
CACCTAAA | -0.17 E-score
CCTGGGAG | 0.0788 E-score
GGCATTTA | -0.149 E-score
AGGGATCG | 0.386 E-score

Sequence | binding signal
AGAAGAGG | -0.0247 E-score
CCGTTCCG | -0.197 E-score
AGCCGTCC | -0.0611 E-score
CAAAGAGA | -0.166 E-score
CACCATAA | 0.0675 E-score
AGTGCGTA | -0.0896 E-score
TAGAGAAA | 0.0618 E-score
CCGGAATC | 0.103 E-score
AATTTCTC | -0.182 E-score
CACCTTTA | 0.0292 E-score
CTAAGTCC | -0.268 E-score
CCCGGGCC | -0.0791 E-score
GATCCAGC | 0.265 E-score
AATACCCC | 0.427 E-score
CCTGTCTA | 0.0036 E-score
AATCGACG | -0.214 E-score
GGAACCCA | 0.0497 E-score
AATCGGTA | -0.0164 E-score
CAGACCTG | -0.105 E-score
GGGCCAAC | -0.174 E-score
ACCGTCGA | -0.0383 E-score
AACTCCGA | 0.0772 E-score
GCAATAGA | -0.0292 E-score
CCCCCCGC | 0.101 E-score
TTCTCCAA | 0.0129 E-score

Sequence | binding signal
GAGTGTAA | -0.187 E-score
ACCCGCCC | 0.0643 E-score
ACAGCACG | 0.0849 E-score
ACAATGCA | 0.074 E-score
AAGAGGCC | -0.3 E-score
CCTTGTGC | -0.105 E-score
CAATGGAA | -0.035 E-score
GCCTCTAC | -0.00481 E-score
TAAATCGA | -0.238 E-score
ACCTTCCA | -0.197 E-score
CATCCGGA | 0.21 E-score
CCAGTACA | 0.147 E-score
CTGGTGGC | -0.111 E-score
CGCAGCAC | -0.223 E-score
AAGCCGCC | -0.184 E-score
TACCGATA | 0.375 E-score
ATGTATTA | 0.241 E-score
AGCCAGCA | -0.184 E-score
GTAGCGGA | 0.0489 E-score
ACGGCAAA | -0.0597 E-score
CCGTATAC | 0.36 E-score
CCTTCGAG | -0.0908 E-score
